This is an account of results in ChEMBL document CHEMBL1201862, “PubChem BioAssay data set” (2004).

SMILES strings stand for the structures. Several values for one entry are separate records, joined by “and”; a condition that tells them apart may be missing. Identical values can stand only once.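 Each compound was tested at five concentrations against cells in 96-well plates for 48 hours. At the GI50, growth is halved.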 Activity calls are given as the source filed them. No stated cut-off is given here; in the data, active = GI50 up to about 1.1 µM and inactive = higher.

This test relates to NCI-H322M. In words: NCI anticancer screen, dose series, 48 h.
Take `Nc1c(S(=O)(=O)O)cc2cc(S(=O)(=O)O)ccc2c1/N=N/c1ccc(-c2ccc(/N=N/c3c(N)c(S(=O)(=O)O)cc4cc(S(=O)(=O)O)ccc34)c(S(=O)(=O)O)c2)cc1`: the GI50 was inactive: > 100 µM.
Consider `CC1=CSC(O)(c2ccc(Cl)cc2)c2noc(=O)n21` (stereo not drawn), for which the GI50 was inactive: > 100 µM.
As for `Cc1ccc(C)c(NC(=O)CC2Sc3ccccc3NC2=O)c1` (stereo not drawn), the GI50 was inactive: 33.1 µM and inactive: 23.7 µM.
Next, `C[N+](C)(C)CC1CCCc2ccccc2C1=O` (stereo not drawn): inactive: 18 µM.
With `C[C@@H]1CC[C@@]2(NC1)O[C@H]1C[C@H]3[C@@H]4CC[C@H]5C[C@@H](O)CC[C@]5(C)[C@H]4CC[C@]3(C)[C@H]1[C@@H]2C`, the GI50 is inactive: 60.8 µM.
Next, `Cc1ccccc1NC(=O)CC(=O)N1N=C(N2c3ccccc3Sc3ccccc32)CC1c1ccccc1` (stereo not drawn): inactive: > 100 µM; `CCOC(=O)c1cn2c(n1)sc1cccc(C)c12`: inactive: > 100 µM.
As for `Cc1cccc(NC(=O)C(=O)C2C(=O)NC(=O)NC2=O)c1C`, the GI50 is inactive: > 100 µM.
Turning to `NC1N=C(c2ccc(Cl)cc2)C2=C(N1)c1ccccc1CC2` (stereo not drawn), the GI50 is inactive: 20.8 µM.
In the case of `COC(=O)c1cc(Br)c(C(=O)C(Cl)(Cl)Cl)[nH]1` it was inactive: > 100 µM; in that of `Cc1ccccc1/N=N/c1c(O)ccc2ccccc12`, inactive: > 100 µM.
Next, `NC(=O)C(=CNC(N)=S)C(N)=O`: inactive: > 100 µM; `CSc1ncnc2c1ncn2C1CC(Oc2ccc(C)cc2)C(COc2ccc(C)cc2)O1` (stereo not drawn): inactive: > 100 µM; `COC(=O)c1c(C)[nH]c2c1C(=O)C(=O)c1nc(C)c(C)nc1-2`: inactive: 10.2 µM.
Next, `O=c1[nH]c(=O)n(C/C=C/CO)nc1Br`: inactive: > 100 µM; `C=C(C#N)C1OCC2OC(C)(C)OC21` (stereo not drawn): inactive: 43.5 µM; `COc1ccc(/C(=N/NC(N)=O)C(c2ccc(OC)cc2)C2C(=O)Oc3ccccc32)cc1` (stereo not drawn): inactive: > 100 µM.
In the case of `c1ccc(COc2ncccc2C2SCCCS2)cc1`, the GI50 was inactive: > 100 µM.
Next, `COC(=O)N/N=C/C(=C/Nc1ccccc1)[N+](=O)[O-]`: inactive: > 100 µM; `Cc1[nH]c2ccccc2c1/C=N/NC(=O)c1cccc(I)c1`: inactive: 24.7 µM; `CCOc1ccc(/C=N\N2C(=O)c3ccccc3C2=O)cc1`: inactive: > 100 µM.
Next, `COc1ccc(N2C(=O)C3c4[nH]c5ccccc5c4C4CCC(C(C)(C)C)CC4C3C2=O)cc1OC` (stereo not drawn): inactive: 30.1 µM; `CSC1(CC(=O)N2CCCCC2)C(=O)Nc2ccccc21` (stereo not drawn): inactive: > 100 µM.
In the case of `COc1cccc2c(N)c3cccc(C(=O)NCCN(C)C)c3nc12` it was active: 0.119 µM; in that of `COc1cc2c(cc1O)-c1c(cnn1-c1ccc([N+](=O)[O-])cc1)CCC2`, inactive: 17.5 µM; in that of `CC(C)Cc1cccc(C(C)C)c1NC(=O)CCC(=O)N/N=C1\C(=N/NC(=O)CCC(=O)Nc2c(C(C)C)cccc2C(C)C)C(c2ccc3c(c2)OCO3)Oc2ccccc21` (stereo not drawn), inactive: > 100 µM.
In the case of `O=c1[nH]c2ccc(CC(=S)N3CCOCC3)cc2o1`, the GI50 is inactive: > 100 µM.
In the case of `Cc1c(C(=O)Nc2ccccc2)nnn1-c1ccnc2cc(C(F)(F)F)ccc12` it was inactive: 69.3 µM; in that of `O=C(c1ccccc1)C1(Br)S(=O)(=O)OCCOS1(=O)=O`, inactive: > 100 µM.
Take `S=C1CC(c2ccccc2)Sc2ccccc2N1` (stereo not drawn): the GI50 is inactive: 60 µM.
With `CCCCCCCCCCCCOP(=O)(O)OP(=O)(O)OCC1OC(n2ccc(N)nc2=O)CC1O` (stereo not drawn), the GI50 is inactive: > 100 µM.
`Cc1cc(-c2nc3c(O)cccc3s2)ccc1N`: the GI50 is inactive: 26.9 µM.
Next, `Oc1cc(-c2ccccc2)nc2ncccc12`: active: 0.681 µM.
